Test results: PubChem BioAssay AID588692 (Broad Institute, 2011)
Out of some 360,000 compounds screened, about 830 (0.23%) were called active. This list was built around the results that the source calls inconclusive (neither active nor inactive); the mix of calls is not that of the screen.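 How the source made its calls: active means mean luciferase reporter signal, scaled so untreated is 0 and the glycosylation-blocking control 100, at or above a set limit in every replicate; inconclusive means mean reaches the limit but not every replicate does; inactive means mean below the limit.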

test: increase of ERlucT glycosylation luciferase signal, primary screen, N-linked glycosylation inhibitor project, D54 ERlucT cells, luminescence, set 2 (AID 588692); details: 24 h, at 12.5 µM, active compounds read high, percent of 100 nM tunicamycin response;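 further: luciferase carries N-glycosylation sites so blocking glycosylation raises the light; 0% = median of neutral control wells and 100% = median of 100 nM tunicamycin wells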

SMILES	reporter increase
Cc1ccc(-n2c(-c3ccc(Br)cc3)c[n+]3c2CCc2ccc4cccnc4c2-3)cc1	active: 40%
Cc1cc(SC#N)cc(C)c1NC(=O)CCl	inconclusive: 27.8%
CCCCNC(=O)c1ccc(Cn2c(=S)[nH]c3c([nH]c4ccc(OC)cc43)c2=O)cc1	inconclusive: 28.6%
O=C(Nc1cccc(-c2nc3ccccc3s2)c1)c1cc(-n2cnnc2)ccc1Cl	inactive: -1.27%
CC(=O)C(Cc1ccccc1)NC(=O)CCl (stereo not given)	inactive: 2.08%
COc1ccc(-n2c(NNC(C)=O)nc3sc4c(c3c2=O)CCCC4)cc1	inconclusive: 28.5%
Cc1ccc(C(=O)NC(=C(Cl)Cl)S(=O)(=O)c2ccc(C)cc2)cc1	inconclusive: 26%
COc1ccc(Nc2nc(-c3sc(C)nc3C)cs2)c(OC)c1	inconclusive: 27.4%
CC(=O)Nc1cccc(-c2ccnc3c2CC(C)(C(=O)NCc2ccco2)O3)c1 (stereo not given)	inconclusive: 31.2%
COc1ccc(CNc2nc(NCc3ccc(OC)cc3)c3ncn(C4CCCC4)c3n2)cc1	inconclusive: 28.7%
CC(C)CCNC(=O)Cn1c(=O)oc2cc(S(=O)(=O)N3CC(C)CC(C)C3)ccc21 (stereo not given)	active: 114%
O=C(/C=C/c1ccc([N+](=O)[O-])s1)N1CCCCC1	active: 39.4%
COc1cc(C2C(C#N)=C(N)Oc3cc4c(cc32)OCO4)cc(OC)c1OC (stereo not given)	inconclusive: 26.8%
Cc1ccc(C(=O)N/C(=C/c2ccco2)C(=O)NCCc2c[nH]c3ccccc23)cc1	active: 44.8%
Cc1noc(C)c1CSc1nc2[nH]ncc2c(=O)n1-c1ccccc1	active: 42.4%
O=C1CN(C(=O)CN2CCN(S(=O)(=O)c3ccccc3F)CC2)c2ccccc2N1	inactive: 1.01%
C=CCn1c(SCc2c(C)noc2C)nc2sc3c(c2c1=O)CCC(C)C3 (stereo not given)	active: 27.8%
CCN(CC)CCNc1nc2cc(OC)c(OC)cc2c2nc(-c3ccccc3)nn12	active: 71.1%
Cc1ccc(CCNS(=O)(=O)c2c(C)nc3sccn3c2=O)cc1	inactive: 1.42%
O=C(CN1C(=O)NC(c2ccccc2)(c2ccccc2)C1=O)Nc1ccc(N2CCOCC2)cc1	inconclusive: 27.1%
Cc1cc(=O)oc2cc(NC(=O)c3cccc(S(C)(=O)=O)c3)ccc12	inconclusive: 26.3%
O=c1cc(-c2ccccc2)[nH]c2cc(F)ccc12	inconclusive: 27.3%
O=C(NC1CCCCC1)C(c1cccs1)N(C(=O)c1ccco1)c1ccc2c(c1)OCCO2 (stereo not given)	inactive: -5.72%
Cc1ccc(CNC(=O)Cc2ccc(-n3c(=O)[nH]c4ccsc4c3=O)cc2)cc1	inconclusive: 37.7%
O=C(Nc1nc2ccc(F)cc2s1)c1ccc([N+](=O)[O-])o1	inconclusive: 26.9%
O=Cc1ccc2noc(-c3ccc(F)cc3)c2c1	inactive: -3.01%
COCCOC(=O)c1[nH]c2c(c1C)C(=O)CC(c1ccco1)C2 (stereo not given)	inconclusive: 25.7%
CCn1cc([N+](=O)[O-])c(C(=O)Nc2nc(-c3ccc(C)c(C)c3)c(C)s2)n1	inconclusive: 33.2%

SMILES	reporter increase
CCNC(=O)C1(C)CCCN(Cc2noc(-c3c(C)noc3C)n2)C1 (stereo not given)	inactive: 0.0745%
CC(C)c1ccc(N(C(=O)c2ccco2)C(C(=O)NC2CCCC2)c2ccncc2)cc1 (stereo not given)	inactive: -0.454%
CCOc1ccc(Nc2nnc(SCc3nc4ccccc4c(=O)[nH]3)s2)cc1	inconclusive: 30.4%
Cc1ccc(NC(=O)COC(=O)c2ccc3c(c2)OCO3)cc1S(=O)(=O)N1CCCCC1	inactive: 2.31%
OCCNc1c2ccccc2nc2c(F)c(F)c(F)c(F)c12	inconclusive: 38.1%
CC(C)c1ccc(-n2c(-c3ccccc3)c[n+]3c2CCc2ccccc2-3)cc1	inconclusive: 32.8%
Cc1csc2c(N3CCN(S(=O)(=O)c4ccc(Cl)cc4)CC3)ncnc12	inactive: -0.316%
COc1ccc(NC(=O)c2cnc(SC)nc2)cc1	inconclusive: 28.6%
Cn1cnc([N+](=O)[O-])c1Sc1ncnc2nc[nH]c12	active: 130%
CCCc1[nH]nc2c1C(c1ccc(Br)s1)C(C#N)=C(N)O2 (stereo not given)	inconclusive: 26.9%
Cc1ccc2c(c1)cc(CN(C(=O)N1CCOCC1)C1CCCC1)c1nnnn12	active: 40.2%
COC(=O)c1ccc(COc2ccccc2/C=C(\C#N)C(=O)Nc2c(C)cc(C)cc2C)cc1	inconclusive: 30.6%
O=C(NCc1ccco1)c1nn2c(C(F)(F)F)cc(-c3cccs3)nc2c1Br	inconclusive: 33.6%
COc1ccc(CCn2c(Br)nc3c2c(=O)[nH]c(=O)n3C)cc1	inconclusive: 33.1%
S=C(NCCSCc1ccc(Cl)c(Cl)c1)Nc1ccccc1	inactive: -1.1%
COc1cccc(-c2cnc3c(NC(C)=O)cc(-c4cc(F)ccc4OC)cn23)c1	inconclusive: 28%
Oc1[nH]c(N=C2N=c3ccccc3=N2)c2ccccc12	active: 117%
O=C(c1ccccc1NS(=O)(=O)c1ccc([N+](=O)[O-])cc1[N+](=O)[O-])N1O[C@@H]2C=C[C@H]1C2	inactive: 2.72%
CN(Cc1ccccc1)c1nc2c(c(=O)[nH]c(=O)n2C)n1CCCc1ccccc1	inconclusive: 27.8%
c1ccc(-c2cc(-c3nnc4n3N=C(c3ccc5ccccc5c3)CS4)[nH]n2)cc1	active: 45.8%
O=C(COC(=O)c1cccc(Br)c1)Nc1cccc2c1C(=O)c1ccccc1C2=O	inconclusive: 44.2%
COc1ccccc1NC(=O)c1cnc(SCC(=O)NCC2CCCO2)n(C)c1=O (stereo not given)	inconclusive: 42.4%
CCN(CC)CCCNc1cc(C)c(C#N)c2nc3ccccc3n12	active: 42.8%
O=C(NCC(c1ccc(F)cc1)N1CCOCC1)c1c(F)cccc1F (stereo not given)	inactive: 0.541%
CCN(CC)CCNc1cccc2sc3ccccc3c(=O)c12	inconclusive: 62.2%
COc1nc(C)nc2c1sc1nc3c(cc12)COC(C)(C)C3	inactive: -3.23%
COc1cc(OC)cc(C(=O)NNC(=O)c2ccc3ccccc3n2)c1	inconclusive: 25.6%
